The text below walks through data of PubChem BioAssay AID463173 (ICCB-Longwood Screening Facility, Harvard Medical School, 2010).

Each structure is given as a SMILES string. Out of some 52,000 compounds screened, about 4,300 (8.3%) were called active. Rule as the data show it: active = survival mostly below about 52% (no sharp cut-off); inactive = mostly above about 56%. Some of the results follow.

This assay has as its system DeltatarO mutant. Nature of the assay: growth inhibition of S. aureus wild type versus tarO mutant, primary screen, teichoic acid synthesis inhibitors, RN4220, OD600 (AID 463173). The following applies: OD600, 18 h, hits give low values, screened at 18.75 µg/mL (by protocol).
Regarding `CCc1ccccc1NC(=O)CN(c1cc(C(F)(F)F)ccc1Cl)S(=O)(=O)c1ccccc1`, the survival is active: 44%.

With `COc1cc(Nc2nc3c(S(=O)(=O)c4ccccc4)nnn3c3ccc(Cl)cc23)cc(OC)c1`, the survival is inactive: 72%. With `COc1ccccc1Nc1cc(C(=O)NCCCN(C)C2CCCCC2)c2ccccc2n1` the figure was inactive: 118%. For `O=C(COc1ccc(Cl)cc1)OCc1cc(=O)n2nc(C3CCCCC3)sc2n1`, the survival was inactive: 88%. Take `Cc1ccc2c(c1)N(C(=O)CCC(=O)NCc1ccccc1F)CC(C)O2` (centres undefined): the survival was inactive: 104%. As to `Cc1cc(C)cc(NC(=O)[C@H]2O[C@@H]3OC(C)(C)O[C@@H]3[C@H]3OC(C)(C)O[C@H]32)c1`, the survival was inactive: 99%. The same measure for `CCOC(=O)c1ccc2c(c1)N(Cc1cc(C)ccc1C)C(=O)c1ccccc1S2(=O)=O`: inactive: 85%. Take `CC(C)CC(=O)NC1CC(=O)N(c2ccc3c(c2)OCCO3)C1` (centres undefined): the survival is inactive: 97%. With `CCCCNC(=O)CSc1nc2cc3c(cc2c(=O)n1CCCC(=O)NCc1ccc(OC)cc1)OCO3` the figure was inactive: 61%; with `CN(Cc1ccccc1)c1nc2c(S(=O)(=O)c3cccc(Cl)c3)nnn2c2ccsc12`, active: 36%; with `COc1cccc(C(=O)NC2CCCC2)c1`, inactive: 75%. With `CCC1CN(S(=O)(=O)c2cc(-c3cc(C)no3)ccc2OC)c2cc(Cl)ccc2O1` (centres undefined) the figure was inactive: 62%; with `COC(=O)c1ccccc1NC(=O)NCc1ccc2c(c1)CCN2C(=O)c1ccccc1`, inactive: 77%. Take `O=C1CN(C(=O)c2ccc(S(=O)(=O)N3CCCC3)cc2)C(c2ccc(F)cc2)c2cc(Br)ccc2N1` (centres undefined): the survival is inactive: 177%.

Take `O=S(=O)(NCCc1csc2nc(-c3ccc(Cl)cc3)nn12)c1cccs1`: the survival was inactive: 84%. With `Cc1ccc2c(c1)N(C(=O)N1CCC(C(=O)Nc3cccc(F)c3)CC1)CCO2` the figure was inactive: 74%; with `CC1CCN(C(=O)CN2CC(C)Sc3ccccc32)CC1` (centres undefined), inactive: 72%; with `COc1ccc(-c2cn3nc(SCC(=O)Nc4cccc(C)c4C)ccc3n2)cc1`, inactive: 80%.

With `CCCC(O)=NS(=O)(=O)c1ccc(N=NN(C)C)cc1`, the survival was inactive: 94%. With `Cc1ccc(NS(=O)(=O)c2ccc(-n3cccn3)cc2)c(Br)c1`, the survival was inactive: 72%. With `COc1ccc(Nc2nc3ccccc3n3c(N)nnc23)cc1` the figure was inactive: 79%; with `Cc1ccccc1C(=O)N1CCC(c2nc(-c3ccc(S(=O)(=O)N4CCCC4)cc3)no2)CC1`, inactive: 102%; with `Cc1cc(C)c2nc(N3CCCN(C(=O)c4ccco4)CC3)c(C#N)cc2c1`, inactive: 80%. With `Cc1ccsc1CN(Cc1ccco1)c1cnc(S(C)(=O)=O)nc1C(=O)Nc1ccc(Cl)cc1` the figure was active: 40%; with `Cn1c(=O)oc2cc(S(=O)(=O)CCC(=O)NCc3ccc(Cl)cc3)ccc21`, inactive: 94%; with `Clc1cccc(Nc2ncnc3c2nc2n3CCCCC2)c1`, active: 17%. With `CCc1ccc(NC(=O)C2CCN(c3ncccn3)CC2)cc1`, the survival is inactive: 88%. With `CC(C)C(=O)c1cn(CC(=O)NCc2cccs2)c2ccccc12`, the survival is inactive: 88%.

In the case of `O=C(CCCCCn1c(=O)c2sccc2n(CC(=O)Nc2ccccc2F)c1=O)NCc1ccc2c(c1)OCO2`, the survival is inactive: 79%. With `CCC(C)OC(=O)/C(C#N)=C/c1ccc(-c2ccc(Br)cc2)o1` (centres undefined) the figure was active: 43%; with `COc1cc(CN(C(=O)COc2ccccc2)c2ccccn2)cc(OC)c1OC`, inactive: 75%.

Regarding `Cc1ccc(C2CC(=O)Nc3c2c(C)nn3-c2nc(C)cc(C)n2)c(C)c1` (centres undefined), the survival is inactive: 102%. On to `COC(=O)c1cc(-c2ccccc2)sc1N`, for which the survival is inactive: 103%.

On to `CCc1ccc(S(=O)(=O)c2nnn3c2nc(N(CC)Cc2ccccc2)c2cc(Cl)ccc23)cc1`, for which the survival was inactive: 73%. As to `Cc1cc2n(n1)CCCN2C(=O)Nc1ccccc1C(F)(F)F`, the survival is inactive: 76%. Turning to `CCCCN(C)C(=O)CCC(=O)NNc1nc2ccccc2c2nc(C)nn12`, the survival is inactive: 91%. The same measure for `CC1(C)C(=O)NC(=O)N1CN1C(=O)NC(=O)C1(C)C`: inactive: 58%. The same measure for `O=C(NCc1ccco1)c1ccc(S(=O)(=O)NCC2CCCCC2)cc1`: inactive: 64%; for `CCC(Nc1ccc(-c2nc(-c3ccccn3)no2)cc1[N+](=O)[O-])c1ccccc1` (centres undefined): active: 41%; for `COc1cc2c(cc1OC)C(COc1cc(C)cc(C)c1)N(C(=O)C(C)(C)C)CC2` (centres undefined): inactive: 78%. In the case of `COc1cc2c(C(=O)N(C)c3cccc(C(F)(F)F)c3)cn(CC(C)C)c(=O)c2cc1OC`, the survival is inactive: 172%.

For the molecule `Cc1cccc(N2CCn3c2nc2c3c(=O)n(CCCc3ccccc3)c(=O)n2C)c1`, the survival is inactive: 76%.

In the case of `Cc1oc(-c2cccc(Cl)c2)nc1Cn1c(SCc2ccc(F)cc2)nc2cccnc21`, the survival was inactive: 85%. Turning to `Cc1ccc(C(c2sc3nc(-c4ccco4)nn3c2O)N2CCN(c3ccc(F)cc3)CC2)cc1` (centres undefined), the survival was inactive: 94%. For `NC(=O)c1ccc(NC(=O)c2ccccc2C(=O)O)cc1`, the survival was inactive: 74%. For `Cc1ccc(C(=O)COC(=O)CCC(=O)Nc2ccc(Oc3ccccc3)cc2)cc1`, the survival is inactive: 82%. Turning to `COc1ccc(Cn2c(=O)c3oc4ccccc4c3n(CC(=O)Nc3c(C)cccc3C)c2=O)cc1`, the survival was inactive: 85%.

Turning to `Cc1oc2cc3oc(=O)c(CCC(=O)NCCc4ccccc4F)c(C)c3cc2c1C`, the survival is inactive: 94%. With `COc1ccc(-c2nc3c(c(SCc4ccc(Br)cc4)n2)Cc2c(CO)cnc(C)c2O3)cc1` the figure was inactive: 89%. Turning to `Cc1ccc(OCCSc2nnc(-c3cccs3)o2)cc1`, the survival was inactive: 53%. As to `Cc1ccc(-n2ncc(C(=O)NCc3ccc4c(c3)OCO4)c2C2CCN(C(=O)OC(C)(C)C)CC2)c(C)c1`, the survival was inactive: 92%. The same measure for `CN1CCN(c2nc(C#N)c(C#N)nc2C(C#N)=C2Nc3ccccc3N2)CC1`: inactive: 97%; for `COC(=O)c1ccc(NC(=O)c2cc(S(=O)(=O)N3CCOCC3)cn2C)cc1`: inactive: 89%; for `Cc1ccccc1OCC(=O)Nc1ccc(S(=O)(=O)N(Cc2ccccc2)c2ccccc2)cc1`: inactive: 66%. Consider `COc1ccc(CCNC(=O)CSc2cn(CCNC(=O)c3c(F)cccc3F)c3ccccc23)cc1OC`, for which the survival was inactive: 79%.

Take `CN(C)c1ccc(NC(=O)Cn2c(SCc3ccc(F)cc3)nc3ccncc32)cc1`: the survival was inactive: 72%. The same measure for `Cc1ccc2c(=O)cc(C(=O)N(Cc3ccc(C(C)(C)C)cc3)C3CCS(=O)(=O)C3)oc2c1` (centres undefined): active: 35%; for `Cc1ccc(NC(=O)c2c(C)oc3ccc(O)c(CN4CCOCC4)c23)cc1`: inactive: 78%; for `COc1cccc(NC(=O)CCN2CC(C)CC(C)C2)c1` (centres undefined): inactive: 90%. With `CNC(=S)N1CCN(c2nc3ccccc3s2)CC1`, the survival was inactive: 73%. With `CCC(=O)N1c2ccccc2CC1C(=O)NCc1ccc(CC)cc1` (centres undefined), the survival is inactive: 100%. The same measure for `Cc1ccc2c(c1)c1c(c(=O)n(-c3ccccc3)c(=O)n1Cc1ccccc1C)n2C`: inactive: 71%; for `Cc1cc(C)cc(N(CC(=O)NCCc2ccc(Cl)cc2)S(=O)(=O)c2c(C)noc2C)c1`: inactive: 95%. With `COc1ccc(NC(=O)Nc2nnc(N3CCCC3)s2)cc1` the figure was inactive: 87%; with `COc1ccc(CNC(=O)CSc2nnc(C)c3c(C)n(-c4ccccc4)nc23)c(OC)c1`, inactive: 81%. With `O=C(c1cc2c(Cl)nc3ccccc3c2s1)N1CCCCC1` the figure was active: 46%; with `CCOC(=O)/C(C#N)=C\c1ccc(N(C)C)cc1`, inactive: 99%; with `Oc1ccc(-c2nc3ccc(Cl)cn3c2Nc2ccc(Cl)cc2)cc1`, active: 16%. On to `COc1ccc(Cn2ccc3nc(C)c(C(=O)NCc4ccc(SC)cc4)cc3c2=O)cc1`, for which the survival was inactive: 70%.

On to `Cc1ccc(CNS(=O)(=O)c2cnc(N)nc2)cc1`, for which the survival was inactive: 72%. Take `Cc1ccccc1NC(=O)Cn1nc(-c2ccccc2)nc(Cc2ccccc2)c1=O`: the survival was inactive: 75%. The same measure for `Cc1ccc(NC(=O)c2ccc(CN3CC(=O)N4CCCCC4C3=O)cc2)c(Cl)c1` (centres undefined): inactive: 118%; for `CN1CCN(C(=O)c2ccc3c(c2)N(Cc2ccc(C(F)(F)F)cc2)C(=O)c2ccccc2S3)CC1`: inactive: 83%. For `CN(CC(=O)Nc1cccc(F)c1)S(=O)(=O)c1ccc2c(c1)n(C)c(=O)c(=O)n2C`, the survival is inactive: 102%. Regarding `CC(=O)c1cccc(NC(=O)CSc2ncc3c(n2)-c2cc(Cl)ccc2N(Cc2ccccc2)S3(=O)=O)c1`, the survival is inactive: 75%. `COc1cc(CNC(=O)c2cc3n(n2)CCCN(Cc2cccc(F)c2)C3=O)cc(OC)c1OC`: the survival is inactive: 79%. Turning to `O=C(CC(c1cccs1)N1Cc2ccccc2C1=O)Nc1ccc(F)cc1` (centres undefined), the survival is inactive: 84%.

`NC(=O)C1CCN(C(=O)CC(c2ccccc2)c2ccccc2)CC1`: the survival was inactive: 81%. With `CSc1cccc(NC(=O)c2cc3c(COC(C)=O)cnc(C)c3oc2=O)c1` the figure was inactive: 126%; with `COc1ccc(S(=O)(=O)NCc2nc(-c3ccccc3)no2)cc1`, inactive: 76%. The same measure for `COc1ccc(Nc2nc(Cl)nc(NCCO)n2)cc1`: inactive: 77%.

With `O=C(CSc1nc2ccccc2n1Cc1cccc(F)c1)NCc1ccccc1`, the survival was inactive: 84%. In the case of `CCOC(=O)c1sc2ncn(CC(=O)Nc3ccc(OC)c(Cl)c3)c(=O)c2c1C`, the survival was inactive: 66%.

`COc1ccc(Br)cc1Cn1nnc(C(=O)Nc2cccc(SC)c2)c1N`: the survival was inactive: 49%. Turning to `Cc1ccccc1Cn1c2ccccc2c2cnn(CC(=O)NC3CCCCCC3)c(=O)c21`, the survival was inactive: 87%. For the molecule `CC(C)CCNC(=O)Cn1nc(N2CCN(c3ccccc3)CC2)ccc1=O`, the survival was inactive: 83%.

With `CCc1ccc(NC(=O)CSc2nc(C)c(C(=O)Nc3ccccc3)c(-c3ccc(OC)c(OC)c3)c2C#N)cc1`, the survival is inactive: 75%. With `Cc1cc(Br)ccc1NC(=O)CSc1c2c(nc3ccccc13)CCC2` the figure was inactive: 62%.

For `O=C(CCc1ccccc1)Nc1ccccc1`, the survival is inactive: 59%.
